# In the supplement of paper PMC8728848:
# The list shows a part of the results.
# B1: Als3-2 (Candida albicans) (protein)
# chain: KTITGVFNSFNSLTWSNAATYNYKGPGTPTWNAVLGWSLDGTSASPGDTFTLNMPCVFKFTTSQTSVDLTAHGVKYATCQFQAGEEFMTFSTLTCTVSNTLTPSIKALGTVTLPLAFNVGGTGSSVDLEDSKCFTAGTNTVTFNDGGKKISINVDFERSNVDPKGYLTD
# Experiments:
# Assay in all cases: glycan array binding signal (z-score within array); higher = stronger binding
# Details in all cases: glycan notation: IUPAC condensed, linker removed
# [1] = molecular target: Neu5Ac(a2-6)Gal(b1-4)GlcNAc(b1-2)Man(a1-3)[Man(a1-6)]Man(b1-4)GlcNAc(b1-4)GlcNAc
# How it was run: (§1)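 The binding signal is a Z-score computed within each array. Data were drawn from 3228 arrays in the Consortium for Functional Glycomics database, restricted to those with a known protein sequence. Scores were averaged over arrays of the same protein sequence at different concentrations or buffers, and over linkers, and negative values can be taken as non-binding.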
# [2] = molecular target: Neu5Ac(a2-6)Gal(b1-4)GlcNAc(b1-2)Man(a1-3)[Neu5Ac(a2-3)Gal(b1-4)GlcNAc(b1-2)Man(a1-6)]Man(b1-4)GlcNAc(b1-4)GlcNAc
# How it was run: as §1
# [3] = molecular target: Neu5Ac(a2-6)Gal(b1-4)GlcNAc(b1-2)Man(a1-3)[Neu5Ac(a2-6)Gal(b1-4)GlcNAc(b1-2)Man(a1-6)]Man(b1-4)GlcNAc(b1-4)GlcNAc
# How it was run: as §1
# [4] = molecular target: Neu5Ac(a2-6)Gal(b1-4)GlcNAc(b1-2)Man(a1-3)[Neu5Ac(a2-6)Gal(b1-4)GlcNAc(b1-2)Man(a1-6)]Man(b1-4)GlcNAc(b1-4)[Fuc(a1-6)]GlcNAc
# How it was run: as §1
# [5] = molecular target: Neu5Ac(a2-6)Gal(b1-4)GlcNAc(b1-2)Man(a1-6)Man(b1-4)GlcNAc(b1-4)GlcNAc
# How it was run: as §1
# [6] = molecular target: Neu5Ac(a2-6)Gal(b1-4)GlcNAc(b1-2)Man(a1-6)[Gal(b1-4)GlcNAc(b1-2)Man(a1-3)]Man(b1-4)GlcNAc(b1-4)GlcNAc
# How it was run: as §1
# [7] = molecular target: Neu5Ac(a2-6)Gal(b1-4)GlcNAc(b1-2)Man(a1-6)[GlcNAc(b1-2)Man(a1-3)]Man(b1-4)GlcNAc(b1-4)GlcNAc
# How it was run: as §1
# [8] = molecular target: Neu5Ac(a2-6)Gal(b1-4)GlcNAc(b1-2)Man(a1-6)[Man(a1-3)]Man(b1-4)GlcNAc(b1-4)GlcNAc
# How it was run: as §1
# [9] = molecular target: Neu5Ac(a2-6)Gal(b1-4)GlcNAc(b1-2)[Neu5Ac(a2-6)Gal(b1-4)GlcNAc(b1-4)]Man(a1-3)[GlcNAc(b1-4)][Neu5Ac(a2-6)Gal(b1-4)GlcNAc(b1-2)[Neu5Ac(a2-6)Gal(b1-4)GlcNAc(b1-6)]Man(a1-6)]Man(b1-4)GlcNAc(b1-4)GlcNAc
# How it was run: as §1
# [10] = molecular target: Neu5Ac(a2-6)Gal(b1-4)GlcNAc(b1-2)[Neu5Ac(a2-6)Gal(b1-4)GlcNAc(b1-4)]Man(a1-3)[GlcNAc(b1-4)][Neu5Ac(a2-6)Gal(b1-4)GlcNAc(b1-4)Man(a1-6)]Man(b1-4)GlcNAc(b1-4)GlcNAc
# How it was run: as §1
# [11] = molecular target: Neu5Ac(a2-6)Gal(b1-4)GlcNAc(b1-2)[Neu5Ac(a2-6)Gal(b1-4)GlcNAc(b1-6)]Man(a1-6)[Neu5Ac(a2-6)Gal(b1-4)GlcNAc(b1-2)Man(a1-3)][GlcNAc(b1-4)]Man(b1-4)GlcNAc(b1-4)GlcNAc
# How it was run: as §1
# [12] = molecular target: Neu5Ac(a2-6)Gal(b1-4)GlcNAc(b1-3)Gal(b1-3)GlcNAc
# How it was run: as §1
# [13] = molecular target: Neu5Ac(a2-6)Gal(b1-4)GlcNAc(b1-3)Gal(b1-4)GlcNAc
# How it was run: as §1
# [14] = molecular target: Neu5Ac(a2-6)Gal(b1-4)GlcNAc(b1-3)Gal(b1-4)GlcNAc(b1-2)Man(a1-3)[Neu5Ac(a2-6)Gal(b1-4)GlcNAc(b1-3)Gal(b1-4)GlcNAc(b1-2)Man(a1-6)]GalNAc
# How it was run: as §1
# [15] = molecular target: Neu5Ac(a2-6)Gal(b1-4)GlcNAc(b1-3)Gal(b1-4)GlcNAc(b1-3)Gal(b1-4)GlcNAc
# How it was run: as §1
# [16] = molecular target: Neu5Ac(a2-6)Gal(b1-4)GlcNAc(b1-3)Gal(b1-4)GlcNAc(b1-3)Gal(b1-4)GlcNAc(b1-2)Man(a1-3)[Neu5Ac(a2-6)Gal(b1-4)GlcNAc(b1-3)Gal(b1-4)GlcNAc(b1-3)Gal(b1-4)GlcNAc(b1-2)Man(a1-6)]GalNAc
# How it was run: as §1
# [17] = molecular target: Neu5Ac(a2-6)Gal(b1-4)GlcNAc(b1-3)Gal(b1-4)GlcNAc(b1-3)GalNAc
# How it was run: as §1
# [18] = molecular target: Neu5Ac(a2-6)Gal(b1-4)GlcNAc(b1-3)Gal(b1-4)GlcNAc(b1-3)[Neu5Ac(a2-6)Gal(b1-4)GlcNAc(b1-3)Gal(b1-4)GlcNAc(b1-6)]GalNAc
# How it was run: as §1
# [19] = molecular target: Neu5Ac(a2-6)Gal(b1-4)GlcNAc(b1-3)Gal(b1-4)GlcNAc(b1-6)[Gal(b1-3)]GalNAc
# How it was run: as §1
# [20] = molecular target: Neu5Ac(a2-6)Gal(b1-4)GlcNAc(b1-3)Gal(b1-4)[Fuc(a1-3)]GlcNAc(b1-3)Gal(b1-4)[Fuc(a1-3)]GlcNAc
# How it was run: as §1
# [21] = molecular target: Neu5Ac(a2-6)Gal(b1-4)GlcNAc(b1-3)GalNAc
# How it was run: as §1
# [22] = molecular target: Neu5Ac(a2-6)Gal(b1-4)GlcNAc(b1-3)[Neu5Ac(a2-6)Gal(b1-4)GlcNAc(b1-6)]GalNAc
# How it was run: as §1
# [23] = molecular target: Neu5Ac(a2-6)Gal(b1-4)GlcNAc(b1-6)GalNAc
# How it was run: as §1
# [24] = molecular target: Neu5Ac(a2-6)Gal(b1-4)GlcNAc(b1-6)[Gal(b1-3)GlcNAc(b1-3)]Gal(b1-4)Glc
# How it was run: as §1
# [25] = molecular target: Neu5Ac(a2-6)Gal(b1-4)GlcNAc(b1-6)[Gal(b1-3)]GalNAc
# How it was run: as §1
# [26] = molecular target: Neu5Ac(a2-6)Gal(b1-4)GlcNAc6S
# How it was run: as §1
# Neu5Ac(a2-6)GalNAc = molecular target: Neu5Ac(a2-6)GalNAc
# How it was run: as §1
# [27] = molecular target: Neu5Ac(a2-6)GalNAc(b1-4)GlcNAc
# How it was run: as §1
# [28] = molecular target: Neu5Ac(a2-6)GalNAc(b1-4)GlcNAc6S
# How it was run: as §1
# [29] = molecular target: Neu5Ac(a2-6)GlcNAc(b1-4)GlcNAc
# How it was run: as §1
# [30] = molecular target: Neu5Ac(a2-6)GlcNAc(b1-4)GlcNAc(b1-4)GlcNAc
# How it was run: as §1
binder,measurement,setting,value
B1,glycan array binding signal (z-score),[1],0.677
same,glycan array binding signal (z-score),[2],-0.568
same,glycan array binding signal (z-score),[3],-0.001
same,glycan array binding signal (z-score),[4],0.573
same,glycan array binding signal (z-score),[5],-0.553
same,glycan array binding signal (z-score),[6],-0.552
same,glycan array binding signal (z-score),[7],-0.515
same,glycan array binding signal (z-score),[8],-0.497
same,glycan array binding signal (z-score),[9],1.21
same,glycan array binding signal (z-score),[10],2.02
same,glycan array binding signal (z-score),[11],-0.431
same,glycan array binding signal (z-score),[12],-0.499
same,glycan array binding signal (z-score),[13],-0.315
same,glycan array binding signal (z-score),[14],2.28
same,glycan array binding signal (z-score),[15],0.378
same,glycan array binding signal (z-score),[16],1.63
same,glycan array binding signal (z-score),[17],1.59
same,glycan array binding signal (z-score),[18],1.54
same,glycan array binding signal (z-score),[19],-0.255
same,glycan array binding signal (z-score),[20],-0.584
same,glycan array binding signal (z-score),[21],-0.511
same,glycan array binding signal (z-score),[22],-0.353
same,glycan array binding signal (z-score),[23],0.527
same,glycan array binding signal (z-score),[24],0.624
same,glycan array binding signal (z-score),[25],-0.472
same,glycan array binding signal (z-score),[26],0.723
same,glycan array binding signal (z-score),Neu5Ac(a2-6)GalNAc,-0.624
same,glycan array binding signal (z-score),[27],-0.622
same,glycan array binding signal (z-score),[28],0.14
same,glycan array binding signal (z-score),[29],-0.657
same,glycan array binding signal (z-score),[30],-0.584
